Read-outs that look alike come from different tables or passages of the source. These are yes or no findings as the source states them, for the method shown. Binding seen in cells or lysates may run through a third protein. Some binding calls cover weakened binding; strength is not graded here. For some of these results: Sequences can lack the tags named with a protein. Blank lines part the entries; values can stand above or below the molecule they belong to.
Legend:
Test in all cases: co-IP; HeLa cells transiently transfected with GFP-tagged constructs; extracts in NET2 (50 mM Tris-HCl pH 7.5, 150 mM NaCl, 0.05% Nonidet P-40), sonicated; 2 h with Protein-G agarose beads covered with goat polyclonal anti-GFP; co-precipitated endogenous proteins seen by western blot
U1-70K-GFP (human) = U1-70K-GFP (human) (UniProt P08621)
[1] = target: T1, RBM39 dRS (aa 138–525), GFP-tagged (UniProt Q14498)
T1 sequence: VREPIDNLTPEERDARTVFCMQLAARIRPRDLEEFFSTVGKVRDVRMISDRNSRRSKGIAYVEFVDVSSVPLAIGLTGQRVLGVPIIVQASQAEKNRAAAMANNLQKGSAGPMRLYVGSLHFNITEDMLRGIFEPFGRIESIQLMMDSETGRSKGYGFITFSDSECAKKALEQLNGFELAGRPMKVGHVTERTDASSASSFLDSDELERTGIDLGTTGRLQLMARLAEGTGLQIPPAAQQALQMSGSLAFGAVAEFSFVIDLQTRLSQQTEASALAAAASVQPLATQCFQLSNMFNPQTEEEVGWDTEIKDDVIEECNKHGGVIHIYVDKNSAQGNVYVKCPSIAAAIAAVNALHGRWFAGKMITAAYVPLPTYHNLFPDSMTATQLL

Sequences of proteins named here, by UniProt entry; tags and fusion partners are left off. A change or cut given only in a name is not applied to a line headed by its entry.
UniProt P08621: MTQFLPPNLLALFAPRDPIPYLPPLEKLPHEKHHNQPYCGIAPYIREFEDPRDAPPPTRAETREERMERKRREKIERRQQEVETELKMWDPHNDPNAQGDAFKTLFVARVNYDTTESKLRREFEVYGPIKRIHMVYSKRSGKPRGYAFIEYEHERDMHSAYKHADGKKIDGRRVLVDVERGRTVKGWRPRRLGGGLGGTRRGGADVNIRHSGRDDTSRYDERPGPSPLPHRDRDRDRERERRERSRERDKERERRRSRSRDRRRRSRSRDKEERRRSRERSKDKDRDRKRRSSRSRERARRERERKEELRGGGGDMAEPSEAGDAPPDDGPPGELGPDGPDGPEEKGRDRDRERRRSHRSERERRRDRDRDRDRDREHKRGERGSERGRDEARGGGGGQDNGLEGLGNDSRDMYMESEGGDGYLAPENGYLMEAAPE
UniProt P09234: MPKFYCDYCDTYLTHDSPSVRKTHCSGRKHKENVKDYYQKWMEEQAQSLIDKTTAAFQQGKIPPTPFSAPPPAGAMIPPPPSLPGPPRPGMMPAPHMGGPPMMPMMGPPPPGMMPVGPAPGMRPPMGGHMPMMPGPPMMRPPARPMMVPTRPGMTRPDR

[2] = target: T2, RBM39-GFP, full-length protein (UniProt Q14498)
T2 sequence: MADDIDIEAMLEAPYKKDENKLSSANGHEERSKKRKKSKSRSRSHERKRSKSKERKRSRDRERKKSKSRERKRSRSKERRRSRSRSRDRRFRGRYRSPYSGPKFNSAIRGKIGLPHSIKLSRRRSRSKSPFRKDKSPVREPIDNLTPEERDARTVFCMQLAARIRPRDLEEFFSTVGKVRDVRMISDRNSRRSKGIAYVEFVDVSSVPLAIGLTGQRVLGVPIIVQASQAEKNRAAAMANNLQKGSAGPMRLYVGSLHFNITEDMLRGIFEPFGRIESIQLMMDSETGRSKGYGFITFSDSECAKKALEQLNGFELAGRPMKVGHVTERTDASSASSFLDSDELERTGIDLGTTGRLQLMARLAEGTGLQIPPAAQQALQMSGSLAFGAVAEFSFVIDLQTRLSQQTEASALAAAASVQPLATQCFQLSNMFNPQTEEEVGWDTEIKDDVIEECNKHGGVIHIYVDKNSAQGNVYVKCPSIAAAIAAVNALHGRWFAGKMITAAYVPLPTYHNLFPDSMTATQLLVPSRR

[3] = target: T3, RBM39 dd (aa 138–407), GFP-tagged (UniProt Q14498)
T3 sequence: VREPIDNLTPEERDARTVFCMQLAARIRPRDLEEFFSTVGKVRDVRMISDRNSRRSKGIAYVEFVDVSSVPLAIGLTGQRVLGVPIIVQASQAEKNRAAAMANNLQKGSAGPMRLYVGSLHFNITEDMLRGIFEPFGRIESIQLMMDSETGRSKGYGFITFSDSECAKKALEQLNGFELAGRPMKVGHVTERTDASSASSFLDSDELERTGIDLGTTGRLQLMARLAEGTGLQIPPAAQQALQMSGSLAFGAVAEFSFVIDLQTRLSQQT

[4] = target: T1, RBM39 dRS (aa 138–525), GFP-tagged; remark: listed apart in the source
[5] = target: T2, RBM39-GFP, full-length protein; remark: listed apart in the source
[6] = target: T3, RBM39 dd (aa 138–407), GFP-tagged; remark: listed apart in the source

binding (U1-70K-GFP (human)): binds
Molecule: U1C (endogenous) (from UniProt P09234 1-159)

binding [1]: no binding | binding [2]: binds | binding [3]: no binding
Molecule: U1-70K (endogenous) (from UniProt P08621 1-437)

binding [4]: no binding | binding [5]: binds | binding [6]: no binding
B1: U2AF35 (endogenous) (protein, UniProt Q01081 1-240)
chain: MAEYLASIFGTEKDKVNCSFYFKIGACRHGDRCSRLHNKPTFSQTIALLNIYRNPQNSSQSADGLRCAVSDVEMQEHYDEFFEEVFTEMEEKYGEVEEMNVCDNLGDHLVGNVYVKFRREEDAEKAVIDLNNRWFNGQPIHAELSPVTDFREACCRQYEMGECTRGGFCNFMHLKPISRELRRELYGRRRKKHRSRSRSRERRSRSRDRGRGGGGGGGGGGGGRERDRRRSRDRERSGRF

Source: PMC6093180
